# Test results from PubChem BioAssay AID493208 (National Center for Advancing Translational Sciences (NCATS), 2011).
# The campaign covered roughly 44,000 compounds. About 340 (0.77%) were called active. This list was built around the results that the source calls inconclusive (neither active nor inactive); the mix of calls is not that of the screen. Calls follow the shape of the dose curve; as a rule, active = well fitted inhibition curve with a large enough effect; inconclusive = small, poorly fitted or top-dose-only effect; inactive = flat fitted curve, though single readings scatter. Potencies of inconclusive entries are left out as doubtful fits.
# Assay: Acumen qHTS Assay for Inhibitors of the mTORC1 Signaling Pathway in MEF (Tsc2-/-, p53-/-) Cells: Sytravon; also: nearly all actives have a fitted effect of over 50% in size;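 as to activity change, negative = inhibition: plate controls were DMSO for no effect and rapamycin for full effect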
# Settings: phospho-rpS6 immunofluorescence/PI, 24 h; series mostly up to 38.3 µM; activity change, negative = inhibition: at the top concentration
# How it was run: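 Readout is phospho-S6 Alexa 488 signal normalized to PI per well, reported as % active cells with thresholds set from rapamycin (7.5 nM) and DMSO controls. Cells: Tsc2-/-, p53-/- MEFs, 24 hrs compound at 37 C; PI cell number serves as viability.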
# Potency is read from the fitted curve at half-maximal effect; tags tell the direction and shape of the fitted curve.
Compound,"activity change, negative = inhibition",Potency
CC(C)c1nn2c(=O)cc(COC(=O)c3cccc(NC(=O)COc4ccc(F)cc4)c3)nc2s1,inactive: 0%,–
CCOc1ccccc1NC(=O)c1c(NC(=O)COc2ccc(Cl)cc2)sc2c1CCCCC2,inactive: 9.73%,–
Cc1ccccc1NC(=O)CC(NCc1cccnc1)C(=O)O (centres undefined),–,"inconclusive [falling, single point]"
CCc1ccc(-n2c(=O)c3c4c(sc3n(CC(=O)c3ccc(F)cc3)c2=O)CCC4)cc1,–,active: 5.21 µM
COc1ccc(-c2ccc3c(N)c(C(=O)c4ccc(OC)c(OC)c4)sc3n2)cc1,–,"inconclusive [falling, single point]"
CCCN1CCN(c2ncnc3sc(C(=O)Nc4ccc(C(C)C)cc4)c(C)c23)CC1,–,"inconclusive [falling, single point]"
CC1CCCN(CCCNC(=O)c2cc(Sc3ccc(F)cc3)nc3ccccc23)C1 (centres undefined),–,"inconclusive [falling, single point]"
Cc1cn2c(=O)cc(COC(=O)c3ccc(NC(=O)COc4ccccc4C)cc3)nc2s1,–,"inconclusive [falling, full curve, poor fit]"
COc1ccc(CCCc2nnc(SCC(=O)Nc3cccc(F)c3C)o2)cc1,–,"inconclusive [falling, single point]"
COc1ccc2c(CNCc3cccs3)c(C(=O)O)n(Cc3ccc(F)cc3)c2c1,–,"inconclusive [falling, partial curve, poor fit]"
O=C(NCc1ccc(Cl)cc1)C1CCN(S(=O)(=O)c2cccc3nonc23)CC1,–,"inconclusive [falling, full curve, poor fit]"
CCCCN(C)CC(O)Cn1cc(/C=C/C(=O)c2ccc(Br)cc2)c2ccccc21 (centres undefined),–,"inconclusive [falling, partial curve, poor fit]"
CCCN1CCN(CCCNC(=O)c2cc3c(=O)n(CC)c4ccccc4c3s2)CC1,–,"inconclusive [falling, partial curve, poor fit]"
COc1cc(/C=C(\C#N)c2nc3ccc(C)cc3[nH]2)ccc1OCc1ccc(C)cc1,–,"inconclusive [activator, partial curve, poor fit]"
CCc1ccccc1N1CC(c2nc3ccccc3n2CCC2CCCCC2)CC1=O (centres undefined),inactive: -0.897%,–
CCCN1Cc2cccc(C(=O)Nc3ccc(OC)cc3OC)c2C1=O,–,"inconclusive [falling, partial curve]"
COc1ccc(OC)c(CCNc2ncnc3onc(C)c23)c1,–,"inconclusive [falling, full curve]"
CCn1c(CN2CCC(C)CC2)nc2cc(NC(=O)c3cccc([N+](=O)[O-])c3)ccc21,–,"inconclusive [falling, partial curve, poor fit]"
CCN(CC)c1ccc(-c2nc(-c3ccccn3)no2)cc1[N+](=O)[O-],inactive: -0.098%,–
CCc1ccc2occ(CC(=O)NCc3ccccc3)c2c1,–,"inconclusive [falling, single point]"

Compound,"activity change, negative = inhibition",Potency
CC(C)c1ccc(NC(=O)c2cc(S(=O)(=O)NCCC3=CCCCC3)ccc2F)cc1,–,"inconclusive [falling, single point]"
COc1ccc(Cl)cc1NC(=O)c1c(NCc2cccs2)sc2c1CCC(C)C2 (centres undefined),–,"inconclusive [falling, single point]"
COc1ccc(N(C(=O)c2cc(OC)c(OC)c(OC)c2)S(=O)(=O)c2ccc(C)cc2)cc1,inactive: 3.39%,–
Cc1ccnc(NC(c2cc(C)ccc2O)c2ccc3cccnc3c2O)c1 (centres undefined),–,"inconclusive [falling, single point]"
Cc1ccc(CNC(=O)C2CCN(S(=O)(=O)c3c(C)noc3/C=C/c3ccccc3F)CC2)o1,–,"inconclusive [falling, partial curve, poor fit]"
COc1ccccc1N1CCN(Cc2cc(COC(C)C)c3cccnc3c2O)CC1,–,active: 5.85 µM
CCC(C)n1c(=N)c(C(=O)NC2CCCCC2)cc2c(=O)n3cc(C)ccc3nc21 (centres undefined),inactive: -2.84%,–
COc1ccc(/C=C\c2onc(C)c2S(=O)(=O)N2CCC(C(=O)Nc3ccc(C)c(F)c3)CC2)cc1,inactive: 1.35%,–
COc1ccc2c(c1)Cc1sc(NC(=O)c3cccc(Cl)c3)nc1-2,inactive: -8.99%,–
COc1cc(C2Nc3ccccc3-c3nnc(SCc4ccc(Cl)cc4)nc3O2)ccc1OCC(=O)O (centres undefined),–,"inconclusive [falling, single point]"
CCC1=Nc2cc(C(=O)NCCCOC(C)C)ccc2Sc2ccc(C)cc21,–,"inconclusive [falling, full curve, poor fit]"
Cc1cc2oc(C(=O)N(Cc3ccc(N(C)C)cc3)CC3CCCO3)c(C)c2cc1C (centres undefined),–,"inconclusive [falling, single point]"
CCN1CCc2c(sc(NC(=O)CSc3ccccc3)c2-c2nc3ccccc3s2)C1,–,"inconclusive [falling, partial curve, poor fit]"
COC(=O)c1ccc(NC(=O)c2nn(C)c3c2COc2ccccc2-3)cc1,–,"inconclusive [falling, partial curve, poor fit]"
Cc1ccc(-n2ncc(C(=O)N3CCN(c4cccc(C)c4C)CC3)c2C2CCNCC2)c(C)c1,–,"inconclusive [falling, single point]"
CCN(CCCNC(=O)c1cc2cc3ccc(OC)cc3nc2s1)c1ccccc1,–,"inconclusive [falling, single point]"
CCN1CCC(N(Cc2ccc3c(c2)OCO3)C(=O)Nc2ccc(Br)c(C)c2)CC1,–,"inconclusive [falling, single point]"
CCCCOCc1cc(CN2CCN(c3cccc(Cl)c3)CC2)c(O)c2ncccc12,–,"inconclusive [falling, partial curve, poor fit]"
CCOc1ccc(C(=O)N2CCN(Cc3cc(=O)n4nc(-c5ccccc5Cl)sc4n3)CC2)cc1,–,"inconclusive [falling, partial curve, poor fit]"
